Experimental findings from the supplement of paper PMC3334620 are described below.

Whole data set: some 33,000 sequences, median “E-score (-0.5 to 0.5)” near -0.021, cut for the highest 2% near 0.32. The list shows a part of the results.

In this assay the target is T1, Zap1 (UniProt P47043).
T1 sequence: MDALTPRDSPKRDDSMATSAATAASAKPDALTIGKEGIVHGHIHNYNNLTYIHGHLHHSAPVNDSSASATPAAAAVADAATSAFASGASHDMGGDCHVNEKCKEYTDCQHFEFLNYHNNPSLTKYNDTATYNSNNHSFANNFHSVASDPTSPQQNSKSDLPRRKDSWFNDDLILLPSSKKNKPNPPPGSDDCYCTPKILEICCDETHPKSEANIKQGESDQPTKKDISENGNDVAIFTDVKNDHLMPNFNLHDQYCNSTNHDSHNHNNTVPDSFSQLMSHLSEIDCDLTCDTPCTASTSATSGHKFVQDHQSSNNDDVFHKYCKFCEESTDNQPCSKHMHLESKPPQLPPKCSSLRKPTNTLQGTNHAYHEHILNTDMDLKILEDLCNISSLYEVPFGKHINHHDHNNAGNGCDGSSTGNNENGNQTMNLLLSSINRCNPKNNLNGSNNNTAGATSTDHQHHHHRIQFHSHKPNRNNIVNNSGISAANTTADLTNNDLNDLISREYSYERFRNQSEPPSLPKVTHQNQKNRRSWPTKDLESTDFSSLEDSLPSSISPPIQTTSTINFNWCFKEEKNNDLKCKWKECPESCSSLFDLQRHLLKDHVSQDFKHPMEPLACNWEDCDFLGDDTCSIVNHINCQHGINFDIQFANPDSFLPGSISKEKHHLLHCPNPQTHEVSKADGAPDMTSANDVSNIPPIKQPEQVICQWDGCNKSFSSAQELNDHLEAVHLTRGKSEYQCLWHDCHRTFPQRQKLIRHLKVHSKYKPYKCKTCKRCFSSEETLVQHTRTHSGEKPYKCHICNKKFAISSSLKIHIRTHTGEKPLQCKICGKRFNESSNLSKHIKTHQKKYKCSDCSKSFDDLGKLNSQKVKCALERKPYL
As to the kind of experiment: PBM E-score (8-mer binding enrichment) (E-score (-0.5 to 0.5)); higher = stronger / more preferred TF binding; most listed sequences are background and not binding sites. The following applies: protein concentration: 200 nM; construct: GST-full length. As for the experimental part:
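Universal 'all 10-mer' protein binding microarrays (Agilent AMADID 015681) probed with GST-tagged S. cerevisiae TFs (full-length or DBD) made by in vitro transcription/translation (PURExpress), about 100-200 nM. Bound TF was detected with fluorescent anti-GST. Each ungapped 8-mer (which stands for itself and its reverse complement) is scored by the PBM enrichment score (E-score), a modified Wilcoxon-Mann-Whitney statistic from -0.5 to +0.5, computed with the Universal PBM Analysis Suite. Scale: above 0.35 generally sequence-specific binding.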
On to AATACGCC, for which the “PBM E-score” value was -0.195.

On to CTCTGCAC, for which the “PBM E-score” value was determined as 0.0614.

For CCGCTATC, the “PBM E-score” value worked out at 0.0509. For the sequence CCCAAACC, the “PBM E-score” value turned out to be 0.15.

Turning to CAATAATA, the “PBM E-score” value amounted to 0.163. As for AAGTGGAA, the figure is 0.102; as for CAGCCTTA, -0.0472; as for CGAACCTC, 0.048. As for AACGGTGC, the figure is -0.0595; as for ACTGGGCC, -0.239. For AGCACCGC, the “PBM E-score” value is -0.0643. As to AGCTGAAG, the “PBM E-score” value is -0.037. On to GTGTCGGA, for which the “PBM E-score” value is -0.0176. GGAGTGAA: the “PBM E-score” value was -0.204.

On to TCATTCAA, for which the “PBM E-score” value stood at 0.222. Regarding AGGTGTTG, the “PBM E-score” value was -0.0192. With TAGAAGCA, the “PBM E-score” value was -0.134. The same measure for AACCATAA: 0.41; for ACCGCACC: 0.134; for GCAGTTTA: -0.0281. As for CTGAGGGA, the figure is -0.157; as for GTACGCAA, 0.0458; as for CCCGGCAC, -0.192. Turning to CCCAAGTA, the “PBM E-score” value is 0.181. As for CTAGCAGA, the figure is -0.0719; as for AATCAAGG, 0.0457; as for GGGACCTA, 0.0642.

Take CGCACACG: the “PBM E-score” value was -0.0768. Turning to AGAGTCTA, the “PBM E-score” value is -0.125.

For ATTTAAAA, the “PBM E-score” value amounted to 0.111. In the case of ATTGTGAC, the “PBM E-score” value amounted to 0.159. The same measure for GTCAAGAA: 0.297; for AGGCGCAT: -0.244.

Regarding AGTCACGG, the “PBM E-score” value worked out at 0.0599. The same measure for CTAATTCC: 0.0516; for CACACGCC: -0.0116; for GTCTTCTA: -0.0319. As to CGCTTTGC, the “PBM E-score” value is -0.0273. As for AGAAAGGG, the figure is 0.105; as for GGCTAATA, 0.0727; as for CAAGCGCG, -0.196. As for AGGAGGTG, the figure is -0.227. On to ACAAGCTG, for which the “PBM E-score” value stood at 0.0122. As for CGAGATCC, the figure is -0.225; as for CATGGTCA, 0.296; as for GCGTAGCC, -0.229. Consider AAGCAGTA, for which the “PBM E-score” value was -0.108. As for CACCTAAA, the figure is 0.191; as for ATCGAGAA, -0.00989; as for GTACTGAA, 0.317. As for ACAATGGC, the figure is -0.0816; as for CTGGCCGA, -0.318; as for CTGGCAGC, -0.189. AGCATTTA: the “PBM E-score” value is -0.0867. As for ACGCGTCC, the figure is -0.184; as for CGGATCCC, -0.213. As for AGACTTGC, the figure is -0.31; as for ACGTCCCG, -0.191. As for CAAAATCG, the figure is 0.0242; as for GATTACCC, 0.316.

As to GATAGGCC, the “PBM E-score” value was -0.107.

For GACCCGAA, the “PBM E-score” value came out at 0.175. The same measure for CCTAAGGC: -0.0765; for GATTCGCA: -0.114. On to ACCATGCA, for which the “PBM E-score” value was 0.13. The same measure for CAATCATG: 0.048; for AGTTCTGG: 0.0815; for GCGAGACA: -0.212. As for CAATCATC, the “PBM E-score” value was found to be 0.124. Turning to CTTCGCCA, the “PBM E-score” value is -0.333.

Turning to AAGCCCAC, the “PBM E-score” value was -0.153. ACCGCCAT: the “PBM E-score” value was -0.00604. As for CCTGGCGC, the figure is -0.221.

Take AGTTCACG: the “PBM E-score” value is -0.0666. As for CCGACAAA, the figure is 0.105; as for CCGAGAAG, 0.0178; as for CAACTCCC, -0.0427. The same measure for AAGTTCAC: -0.108; for CGCTTCGC: -0.145; for CGGTGAGC: -0.234. The same measure for ATAGTGTC: 0.0637; for CGCAAGTA: -0.108.

For the sequence AACCGAAC, the “PBM E-score” value worked out at 0.18. Turning to CCGCTCGA, the “PBM E-score” value is -0.0533.

Regarding CCTGTCTA, the “PBM E-score” value is -0.0816. As for AATGGACA, the figure is 0.0048; as for TGTTATAA, 0.247.

Consider GCGGAGAA, for which the “PBM E-score” value is -0.0665. The same measure for CCTCGTGA: 0.179; for ATTCACGG: 0.137. In the case of GTTAAGAA, the “PBM E-score” value came to 0.197. The same measure for AGCTAGTG: -0.213; for CAACCCAC: 0.229; for AACCCAAT: 0.187.
